This experiment can be described thus: Amidase activity against BAPNA of chromatographic pools, with or without cysteine (Example 8). It is filed as biochemical. On the procedure: Amidase activity was measured using N-L-Benzoyl-DL-Arginine-p-nitro-anilide (BAPNA) as the substrate. • a. ASSAY METHOD N° 1 : SMITH ASSAY : The sample is added to "Buffer 1", aqueous sodium phosphate buffer (100 mM), pH 6.0 containing EDTA (1 mM) and Cysteine hydrochloride monohydrate (10 mM), to a final volume of 1.0 ml. The enzyme (where present in the sample) is allowed to activate for 5 minutes at 37°C before the reaction is started by the addition of 4 ml of BAPNA (1.25 mM) substrate solution preheated to 37°C. Substrate solution is prepared by dissolving 300 mg BAPNA in warm dimethylsulfoxide, adding the solution slowly to 450 ml Buffer 1 preheated to 37°C and the making up to 500 ml with further Buffer 1. […] Released 4-nitroaniline is determined by measurement of ΔA₄₁₀. […] Released 4-nitroaniline is determined by measurement of ΔA₄₁₀. […] ASSAY METHODS N° 3 : The sample to be analyzed (x ml) is preincubated at 40°C for 10 minutes with (1.8-x) ml of the activation buffer which contains phosphate, citrate and borate 100 mM each in addition to 25 mM L-Cysteine and 15 mM EDTA (pH 6.8). […] The release of 4-nitroaniline is determined spectrophotometrically using ε 410 = 8800 M⁻¹.cm⁻¹, x being chosen so that ΔA₄₁₀ after 15 minutes never exceeded 0.80. […] The specific activity is expressed as the number of units per mg of protein. […]

B1: pool I: first pool of Figure 6A: chymopapain species with covalently linked PEG (conjugate, UniProt P14080 135-352, looked up)
Chymopapain: YPQSIDWRAKGAVTPVKNQGACGSCWAFSTIATVEGINKIVTGNLLELSEQELVDCDKHSYGCKGGYQTTSLQYVANNGVHTSKVYPYQAKQYKCRATDKPGPKVKITGYKRVPSNCETSFLGALANQPLSVLVEAGGKPFQLYKSGVFDGPCGTKLDHAVTAVGYGTSDGKNYIIIKNSWGPNWGEKGYMRLKRQSGNSQGTCGVYKSSYYPFKGFA
modifications: PEG
Regarding B1, the “activity against BAPNA” value is, setting by setting: (cysteine omitted) “inactive”; (cysteine present) “active”.

The values are drawn from patent EP0622394A1, “Reversible modification of sulfur-containing molecules with polyalkylene glycol derivatives and their use” (S.A. LABORATOIRES S.M.B., priority 1993, dated 1994).
